Screen size: about 52,000 compounds; about 1,700 (3.3%) were called active. Cut-off read from the data, not from the text of the source: active = survival mostly below about 52% (no sharp cut-off); inactive = mostly above about 56%. This is one part of the list.
Each compound was assayed on Wild type (assay: growth inhibition of S. aureus wild type versus tarO mutant, primary screen, teichoic acid synthesis inhibitors, RN4220, OD600 (AID 463173)). Conditions: S. aureus RN4220 wild type/DeltatarO growth, OD600, 18 h, active compounds read low, screened at 18.75 µg/mL (by protocol).
In the case of `Cc1ccc2nc(Cl)c3cc(C(=O)NC4CCC(C)CC4)sc3c2c1` (stereo not given), the survival is reported as inactive: 72%.
`CCN(CC)C(=O)CSc1nnc(-c2ccco2)n1CCCOC` was tested, and the survival was inactive: 108%.
With `Cc1ccc(/C=N/NC(=O)C2=NNC(=O)C2C)o1` (stereo not given) the survival was inactive: 107%.
For `Cc1ccc(N2CCN(C(=O)c3cc(S(=O)(=O)N4CCCCC4)c[nH]3)CC2)c(C)c1`, the survival was inactive: 73%.
`Cc1ccc(-c2cc(C(=O)Oc3ccccc3Cl)no2)cc1C` was tested, and the survival was active: -6%.
In the case of `Cc1cccc(OCC(=O)N(Cc2ccccc2)c2ccccn2)c1`, the survival is reported as inactive: 87%.
`CS(=O)(=O)N1CCCc2cc(C(=O)Nc3cccc(C(F)(F)F)c3)ccc21` was tested, and the survival was inactive: 70%.
`COc1ccc(C2C(=O)N(C3CCCCCC3)CC(=O)N2CCC2=CCCCC2)cc1` (stereo not given) was tested, and the survival was inactive: 53%.
In the case of `COc1ccc(CCNC(=O)c2ccc3c(Cl)c4c(nc3c2)CCCC4)c(OC)c1`, the survival is reported as inactive: 97%.
`COC(=O)c1cnc(N2CCN(c3ccc(F)cc3)CC2)c2ccccc12` was tested, and the survival was inactive: 89%.
In the case of `CC1CCC(NC(=O)c2ccc(CS(=O)(=O)c3c(Cl)cccc3Cl)o2)CC1` (stereo not given), the survival is reported as inactive: 71%.
In the case of `CC(=O)c1ccc(N2CCN(c3ncnc4onc(C)c34)CC2)cc1`, the survival is reported as inactive: 66%.
With `CCN(CC)C(=O)Cn1cc(/C=C(\C#N)C(=O)N2CCN(c3ccccc3)CC2)c2ccccc21` the survival was inactive: 102%.
With `O=C(OC(C(=O)NCc1cccs1)c1ccccn1)c1cccs1` (stereo not given) the survival was inactive: 110%.
In the case of `O=C(NCCN1CCCCC1)c1ccc(Cn2c(SCc3cccc(F)c3)nc3cccnc32)cc1`, the survival is reported as inactive: 89%.
In the case of `COC(=O)c1ccc(CSc2nc3c(c(=O)[nH]2)CCC3)cc1`, the survival is reported as inactive: 85%.
In the case of `COc1ccc(OCC(=O)Nc2ccccc2C(=O)OCc2cc(=O)n3nc(C)sc3n2)cc1`, the survival is reported as inactive: 66%.
`COc1cc(-c2nc(-c3cccc(Cl)c3)c(-c3ccccc3)[nH]2)cc(OC)c1OC` was tested, and the survival was inactive: 143%.
In the case of `Cc1ccc(NC(=O)Cn2c(=O)n(Cc3ccc4c(c3)OCO4)c(=O)c3ccccc32)c(C)c1`, the survival is reported as inactive: 97%.
With `CCc1ccccc1NC(=O)Cn1c(=O)n(Cc2ccco2)c(=O)c2sc3ccccc3c21` the survival was inactive: 89%.
In the case of `Cc1ccc2nc(N3CCN(c4cccc(C)c4C)CC3)c3nncn3c2c1`, the survival is reported as inactive: 26%.
In the case of `Cc1ccc(C)c(N2CCN(S(=O)(=O)c3cnc(N)nc3)CC2)c1`, the survival is reported as inactive: 82%.
For `CC(C)CCn1c(=O)c2sccc2n2c(CCCC(=O)NC3CCC(C)CC3)nnc12` (stereo not given), the survival was inactive: 92%.
`O=C(CCn1nnc(-c2cccs2)n1)NC1CCCCC1` was tested, and the survival was inactive: 115%.
`CCOC(=O)c1ccc2c(c1)N(Cc1ccccc1)C(=O)c1ccccc1S2` was tested, and the survival was inactive: 75%.
With `COc1ccc(CCNC(=O)CCSCc2ccccc2Cl)cc1OC` the survival was inactive: 88%.
In the case of `O=C(NCCS(=O)(=O)N1CCN(c2ccc(F)cc2)CC1)C1CC(=O)N(c2ccc(F)cc2)C1` (stereo not given), the survival is reported as inactive: 70%.
`COc1cccc(-c2cc(C(=O)Nc3ccn(Cc4ccc(C)cc4)n3)no2)c1` was tested, and the survival was inactive: 55%.
In the case of `CC(C)c1ccc2oc(-c3ccc(NC(=O)c4cc5ccccc5o4)cc3)nc2c1`, the survival is reported as inactive: 61%.
In the case of `CCCCc1ccc(NC(=O)CSc2nc3ccccc3nc2N2CCOCC2)cc1`, the survival is reported as inactive: 44%.
With `O=C(Nc1cc(Cl)cc(Cl)c1)c1ccc(F)c(S(=O)(=O)NC2CCCCC2)c1` the survival was inactive: 64%.
For `[O-][n+]1c2c(nn1-c1ccccc1)/C(=N\O)CCC2`, the survival was inactive: 102%.
For `Cc1ccn2c(Nc3ccc4c(c3)OCO4)c(-c3ccc(O)cc3)nc2c1`, the survival was inactive: 71%.
With `CCCOC(=O)C(C)n1nnc2sc(-c3ccccc3)cc2c1=O` (stereo not given) the survival was inactive: 89%.
With `CCCCOc1ccc(S(=O)(=O)n2nc(C)c(S(=O)(=O)N3CCC(C)CC3)c2C)cc1` the survival was inactive: 87%.
In the case of `COc1cccc(CNS(=O)(=O)c2cc(Br)cc3c2N(C(C)=O)C(C)C3)c1` (stereo not given), the survival is reported as inactive: 136%.
For `O=C(CSCc1cnn(-c2ccccc2)c1-n1cccc1)NCc1ccccc1F`, the survival was inactive: 92%.
For `CCCN1CCN(c2ncnc3sc(C(=O)Nc4ccc(N(CC)CC)cc4C)c(C)c23)CC1`, the survival was inactive: 128%.
With `Cc1cccc(Cc2cnc(NC(=O)c3ccc4c(c3)CC(c3ccccc3)OC4=O)s2)c1` (stereo not given) the survival was inactive: 92%.
`CCc1ccc(-n2c(=O)c3c4c(sc3n(CC(=O)NCCCOC)c2=O)CCC4)cc1` was tested, and the survival was inactive: 79%.
In the case of `Cc1ccc2oc(C(=O)Nc3ccc(S(=O)(=O)N(C)Cc4ccccc4)cc3)cc(=O)c2c1`, the survival is reported as inactive: 81%.
`COc1cccc(CC(=O)NCc2ccc3c(c2)CCN3C(C)=O)c1` was tested, and the survival was inactive: 71%.
`CCc1ccccc1NC(=O)C1CCN(c2nn3c(=O)cc(C)nc3s2)CC1` was tested, and the survival was inactive: 88%.
In the case of `CN(C)S(=O)(=O)Nc1ccc(-c2cn3ccsc3n2)cc1`, the survival is reported as active: 14%.
`COC(=O)c1ccccc1NC(=O)c1nc(S(=O)(=O)Cc2ccccc2F)ncc1Cl` was tested, and the survival was inactive: 118%.
With `Cc1ccc(-n2nc(C(=O)N3CCN(c4ccccc4)CC3)c(=O)n(C)c2=O)cc1` the survival was inactive: 146%.
For `CC(NC(=O)c1ccc2nc(CCc3ccccc3)oc2c1)c1ccccc1` (stereo not given), the survival was inactive: 91%.
For `Cc1ccccc1Cn1c(C)c(CNCc2ccccc2)c(C(=O)O)c1C`, the survival was inactive: 85%.
For `CC(C)Oc1ccc(CNC(=O)c2ccc3nc(SCc4ccc(F)cc4)n(C)c3c2)cc1`, the survival was inactive: 123%.
In the case of `Cc1ccc(C)c(NC(=O)CCc2c(C)n(C)c3cc(-c4ccccc4C)nn3c2=O)c1`, the survival is reported as inactive: 45%.
In the case of `O=C(NCCc1ccc(Cl)cc1)c1ccc2c(c1)N(Cc1ccccc1)CCS2`, the survival is reported as inactive: 119%.
For `O=C(Nc1ccc2oc(-c3cccnc3)nc2c1)c1ccc(-c2cccc(OC(F)(F)F)c2)o1`, the survival was inactive: 80%.
With `COc1cccc(N2CCN(C(=O)c3ccc(CS(=O)c4cccc(Cl)c4)o3)CC2)c1` (stereo not given) the survival was inactive: 84%.
`COc1ccc(NC(=O)c2nc(SCc3ccccc3F)ncc2Cl)cc1` was tested, and the survival was inactive: 87%.
With `COc1ccc(Br)cc1S(=O)(=O)N1CCCCCC1` the survival was inactive: 117%.
`CCOc1ccc(NC(=O)Cn2c(CCC(=O)O)ccc2-c2ccc(Cl)cc2)cc1` was tested, and the survival was inactive: 85%.
For `CCCN1C(C(=O)c2ccccc2)=C(OC(=O)c2ccc(F)cc2)c2ccccc2S1(=O)=O`, the survival was inactive: 55%.
For `Cc1ccc(C)c(Cn2c3ccccc3c3cnn(CC(=O)N4CCCCC4)c(=O)c32)c1`, the survival was inactive: 82%.
In the case of `CC(C)c1ccc(C2=CC(c3cccc(Cl)c3)n3ncnc3N2)cc1` (stereo not given), the survival is reported as active: -3%.
With `CCC(=O)Nc1sc2c(c1C#N)CCCC2` the survival was inactive: 113%.
With `Cc1ccc(NC(=O)CCS(=O)(=O)c2cccc3nonc23)c(C)c1` the survival was inactive: 95%.
`CN(CCC#N)CC1Cc2ccccc2O1` (stereo not given) was tested, and the survival was inactive: 110%.
With `COc1ccc(Cl)cc1NC(=O)c1cc(S(=O)(=O)N2CCc3ccccc32)cn1C` the survival was inactive: 83%.
In the case of `NC(=O)c1ccc2nc(N)sc2c1`, the survival is reported as inactive: 103%.
In the case of `Cc1nn(CCC(=O)NC(C)C)c(=O)c2nn(-c3ccccc3)c(C)c12`, the survival is reported as inactive: 88%.
`COc1ccccc1CC(NC(C)=O)C(=O)N1CCN(C(=O)c2cccs2)CC1` (stereo not given) was tested, and the survival was inactive: 107%.
For `Cc1cccc(-n2c(=O)c3ccccc3n(Cc3ccccc3C#N)c2=O)c1`, the survival was inactive: 83%.
For `Cc1ccc(-c2nc3cc(N=Cc4ccccc4O)ccc3o2)cc1`, the survival was inactive: 105%.
`COc1cc2c(C(=O)N3CCN(c4cccc(C)c4)C(C)C3)cn(CC(C)C)c(=O)c2cc1OC` (stereo not given) was tested, and the survival was inactive: 85%.
In the case of `CCc1nnc(NC(=O)c2nc(S(C)(=O)=O)ncc2Cl)s1`, the survival is reported as inactive: 86%.
For `O=C(CSc1nc2c([nH]c3ccccc32)c(=O)n1-c1cccc(Cl)c1)N1CCc2ccccc21`, the survival was inactive: 45%.
`Cc1ccc2nc(NCc3ccccc3Cl)c3nnnn3c2c1` was tested, and the survival was inactive: 94%.
For `COc1cccc(Cc2nc3ccccc3nc2SCC(=O)N2CCCCC2C)c1` (stereo not given), the survival was inactive: 71%.
For `COc1cccc(C(=O)CN2CCN(S(=O)(=O)c3ccc(Cl)cc3)CC2)c1`, the survival was inactive: 76%.
With `O=C(NCc1ccco1)c1ccc2c(c1)N(Cc1ccc(F)cc1)C(=O)c1ccccc1S2=O` (stereo not given) the survival was inactive: 98%.
`O=C(CN1C(=O)CSc2ccc(S(=O)(=O)N3CCCCC3)cc21)NCc1ccc(F)cc1Cl` was tested, and the survival was inactive: 127%.
With `COc1cc(NC(=O)CCc2c(C)n(C)c3cc(-c4ccccc4C)nn3c2=O)cc(OC)c1OC` the survival was inactive: 130%.
`CCOc1ccccc1NC(=O)c1sc2nc3c(cc2c1N)CN(Cc1ccccc1)CC3` was tested, and the survival was inactive: 77%.
For `COc1cc2ccccc2cc1C(=O)Nc1ccc2oc(-c3cc(Br)ccc3Cl)nc2c1`, the survival was inactive: 71%.
With `Cc1ccc(-c2noc(CSc3nnc(-c4ccc(Cl)cc4)n3C)n2)cc1` the survival was inactive: 83%.
With `Cc1cccc(C(=O)NCC(c2ccc3c(c2)OCO3)N2CCOCC2)c1` (stereo not given) the survival was inactive: 89%.
In the case of `Cc1ccc(S(=O)(=O)NCc2cccnc2)cc1`, the survival is reported as inactive: 118%.
In the case of `CC(C)C(=O)N(C)c1nnc(-c2ccc(F)cc2)s1`, the survival is reported as inactive: 110%.
With `O=C(c1ccco1)c1cn(CCOc2ccc(Cl)cc2)c2ccccc12` the survival was inactive: 68%.
For `CCc1ccc(C2C(C(=O)Nc3ccccc3)=C(C)Nc3nc(SCC(=O)c4ccc(C)cc4)nn32)cc1` (stereo not given), the survival was inactive: 66%.
`CC(=O)c1ccc(NC(=O)Cn2c3ncccc3c(=O)n2-c2ccc(C)cc2)cc1` was tested, and the survival was inactive: 117%.
In the case of `COc1ccc(NC(=O)c2cnc(SCC(=O)Nc3nc4ccc(C)cc4s3)n(C)c2=O)cc1`, the survival is reported as inactive: 81%.
`COc1ccc(C(CNC(=O)c2ccc(C)cc2)N2CCOCC2)cc1` (stereo not given) was tested, and the survival was inactive: 92%.
For `O=C(c1cccs1)N1CCCc2cc(NS(=O)(=O)c3ccc(Cl)cc3)ccc21`, the survival was inactive: 78%.
`O=C(CSc1nccn1Cc1ccccc1)NC1CCCC1` was tested, and the survival was inactive: 88%.

Source: PubChem BioAssay AID463173 (ICCB-Longwood Screening Facility, Harvard Medical School, 2010)
